The list shows a part of the results.

One experiment relates to HSkMC. In words: cytotoxicity call (relative viability < 0.9). To be noted: 10 µM.
Another experiment has as its system HepG2. Briefly: cytotoxicity call (relative viability < 0.9). To be noted: 10 µM.
A further experiment concerns S. aureus RN4220. Briefly: growth inhibition call (relative growth <= 0.2). To be noted: 50 µM.

`C[C@H](CO)N1C[C@H](C)[C@H](CN(C)C(=O)NC2CCCCC2)Oc2ccc(NS(=O)(=O)c3cn(C)cn3)cc2C1=O`: the cytotoxicity call in the experiment on HSkMC and in the experiment on HepG2 was “inactive” in each case. The growth inhibition call in the experiment with S. aureus RN4220 is “inactive”.
As for `Cc1ccc(S(=O)(=O)N(C)C[C@H]2OCCCC[C@@H](C)Oc3ccc(NS(=O)(=O)c4ccc(Cl)cc4)cc3C(=O)N([C@H](C)CO)C[C@H]2C)cc1`, the cytotoxicity call with HSkMC and with HepG2 was “inactive” each time. Moreover, in the experiment on S. aureus RN4220, the growth inhibition call was “inactive”.
Take `COc1ccc(-c2cnc3c(c2)C(=O)N([C@H](C)CO)C[C@H](C)[C@H](CN(C)C(=O)Nc2cccc4ccccc24)O3)cc1`: the cytotoxicity call in the experiment with HSkMC and with HepG2 was “inactive” in each case. The growth inhibition call in the experiment with S. aureus RN4220 is “inactive”.
Regarding `C[C@H](CO)N1C[C@H](C)[C@H](CN(C)Cc2ccc(-c3ccccc3)cc2)Oc2ccc(NC(=O)Nc3ccc(F)cc3)cc2CC1=O`, the cytotoxicity call in the experiment with HSkMC and in the experiment with HepG2 was “active” each time. In addition, the growth inhibition call with S. aureus RN4220 was “inactive”.
Take `CCC1(O)C(=O)OCc2c1cc1n(c2=O)Cc2cc3c(CN(C)C)c(O)ccc3nc2-1.Cl` (stereo unspecified): in the experiment on HSkMC, the cytotoxicity call was “inactive”. In the experiment on HepG2, the cytotoxicity call was “active”. In addition, in the experiment on S. aureus RN4220, the growth inhibition call was “inactive”.
On to `C[C@@H]1CN([C@H](C)CO)C(=O)c2cc(NC(=O)CCCN(C)C)ccc2O[C@H]1CN(C)S(=O)(=O)c1ccc(Cl)cc1`, for which the cytotoxicity call in the experiment with HSkMC and in the experiment with HepG2 was “inactive” each time. The growth inhibition call in the experiment on S. aureus RN4220 is “inactive”.
Take `Cc1noc(C)c1S(=O)(=O)Nc1ccc2c(c1)C(=O)N([C@H](C)CO)C[C@H](C)[C@@H](CN(C)CC1CC1)O2`: the cytotoxicity call with HSkMC and in the experiment with HepG2 was “inactive” in each case. In addition, the growth inhibition call in the experiment with S. aureus RN4220 was “inactive”.
Turning to `C[C@H](CO)N1C[C@H](C)[C@H](CN(C)Cc2ccncc2)Oc2ccc(NC(=O)Nc3ccc(C(F)(F)F)cc3)cc2CC1=O`, the cytotoxicity call in the experiment on HSkMC is “inactive”. Moreover, the cytotoxicity call with HepG2 was “active”. In addition, the growth inhibition call in the experiment with S. aureus RN4220 was “inactive”.
As to `CCOC(=O)C(=O)c1csc(NC=O)n1`, the cytotoxicity call with HSkMC and in the experiment with HepG2 was “inactive” each time. The growth inhibition call in the experiment with S. aureus RN4220 is “inactive”.
Consider `CCCCCc1ccccn1`, for which the cytotoxicity call in the experiment with HSkMC and with HepG2 was “inactive” each time. The growth inhibition call with S. aureus RN4220 is “inactive”.
Take `COc1cccc(-c2cnc3c(c2)C(=O)N([C@H](C)CO)C[C@H](C)[C@H](CN(C)Cc2cccc(C(F)(F)F)c2)O3)c1`: the cytotoxicity call in the experiment on HSkMC and in the experiment with HepG2 was “inactive” each time. Moreover, the growth inhibition call in the experiment on S. aureus RN4220 is “inactive”.
As for `O=C(O)[C@@H]1C2C=CC3(O2)C1C(=O)N1CCS(=O)[C@H]13` (stereo partly specified), the cytotoxicity call in the experiment on HSkMC and in the experiment with HepG2 was “inactive” in each case. Moreover, in the experiment with S. aureus RN4220, the growth inhibition call is “inactive”.
For the molecule `Cc1noc(C)c1NC(=O)Nc1ccc2c(c1)C(=O)N([C@@H](C)CO)C[C@H](C)[C@@H](CN(C)C(=O)Nc1ccc3c(c1)OCO3)OCCCC[C@H](C)O2`, the cytotoxicity call in the experiment with HSkMC and in the experiment on HepG2 was “inactive” each time. Besides, the growth inhibition call with S. aureus RN4220 is “inactive”.
Consider `C[C@@H]1CN([C@H](C)CO)C(=O)c2cc(NC(=O)CCCCCC(=O)Nc3ccccc3N)ccc2O[C@@H]1CN(C)C(=O)Nc1ccc(F)cc1`, for which the cytotoxicity call in the experiment on HSkMC and in the experiment on HepG2 was “inactive” in each case. For the same molecule, the growth inhibition call with S. aureus RN4220 was “inactive”.
As for `C[C@@H]1CN([C@H](C)CO)C(=O)c2ccccc2-c2ccccc2CO[C@H]1CN(C)C(=O)Nc1ccccc1C(F)(F)F`, the cytotoxicity call in the experiment on HSkMC and with HepG2 was “inactive” throughout. Also, the growth inhibition call with S. aureus RN4220 is “inactive”.
For `C[C@@H]1CN([C@@H](C)CO)C(=O)c2cccc(NS(=O)(=O)c3ccc(F)cc3)c2O[C@H]1CN(C)Cc1ccc(Oc2ccccc2)cc1`, the cytotoxicity call with HSkMC and in the experiment on HepG2 was “inactive” each time. Further, the growth inhibition call with S. aureus RN4220 was “inactive”.
With `Cc1ccc(S(=O)(=O)Nc2ccc3c(c2)C(=O)N([C@@H](C)CO)C[C@H](C)[C@@H](CN(C)C(=O)NC(C)C)O3)cc1`, the cytotoxicity call in the experiment with HSkMC and in the experiment on HepG2 was “inactive” in each case. For the same molecule, the growth inhibition call in the experiment with S. aureus RN4220 is “inactive”.
`CCN(CCO)C(=O)C1CN(C(C)=O)C1`: the cytotoxicity call in the experiment with HSkMC and in the experiment on HepG2 was “inactive” each time. Further, in the experiment on S. aureus RN4220, the growth inhibition call is “inactive”.
For `COc1ccc(NC(=O)Nc2ccc3c(c2)C(=O)N([C@@H](C)CO)C[C@H](C)[C@H](CN(C)S(=O)(=O)c2ccc(OC)cc2)OCCCC[C@@H](C)O3)cc1`, the cytotoxicity call with HSkMC and with HepG2 was “inactive” throughout. Also, the growth inhibition call in the experiment on S. aureus RN4220 is “inactive”.
For `Cc1ccc(C(=O)NCCN2CCNC2=O)cc1`, the cytotoxicity call with HSkMC and in the experiment with HepG2 was “inactive” each time. Also, the growth inhibition call in the experiment with S. aureus RN4220 is “inactive”.
Regarding `CC(C)(C)[S@@](=O)N1Cc2cc(C(=O)N3CCc4ccccc4C3)nc(-c3cccc(-c4cccnc4)c3)c2[C@H]1CCO`, the cytotoxicity call in the experiment on HSkMC and with HepG2 was “inactive” each time. Also, the growth inhibition call in the experiment with S. aureus RN4220 was “inactive”.
In the case of `COc1ccc(CNC(=O)C[C@@H]2C[C@H]3c4cc(NC(=O)NC5CCCC5)ccc4O[C@H]3[C@H](CO)O2)cc1`, the cytotoxicity call in the experiment on HSkMC and with HepG2 was “inactive” in each case. For the same molecule, the growth inhibition call with S. aureus RN4220 was “inactive”.
Take `Cc1csc2ncnc(Cl)c12`: the cytotoxicity call with HSkMC and in the experiment with HepG2 was “inactive” in each case. Also, in the experiment on S. aureus RN4220, the growth inhibition call was “inactive”.
`O=C(NO)c1ccc(-c2cn(CC[C@@H]3OC(=O)[C@H](Cc4ccccc4)N4CC5=CC(=O)[C@H](C6CC6)[C@H]5[C@H]34)nn2)s1`: the cytotoxicity call in the experiment with HSkMC and with HepG2 was “inactive” in each case. Further, the growth inhibition call in the experiment on S. aureus RN4220 was “inactive”.
On to `Cc1ccc(S(=O)(=O)N2C[C@@H](O)COC[C@H]3O[C@@H](CC(=O)NCc4ccc(Cl)c(Cl)c4)CC[C@@H]32)cc1`, for which the cytotoxicity call with HSkMC and in the experiment on HepG2 was “inactive” throughout. The growth inhibition call with S. aureus RN4220 is “inactive”.
On to `OCc1cccc(CO)n1`, for which the cytotoxicity call with HSkMC and with HepG2 was “inactive” in each case. Besides, the growth inhibition call in the experiment on S. aureus RN4220 is “inactive”.
On to `COc1ccc(C#Cc2ccc3c(c2)O[C@H](CN(C)C(=O)c2ccccn2)[C@H](C)CN([C@@H](C)CO)S3(=O)=O)cc1`, for which, in the experiment on HSkMC (human skeletal muscle cells), the cytotoxicity call was “inactive”. Besides, in the experiment on HepG2, the cytotoxicity call was “active”. Besides, in the experiment with S. aureus RN4220, the growth inhibition call is “inactive”.
